From the supplement of paper PMC10126150
Values marked as one replicate rest on one cluster of the flow cell; about a third of the high ones do not repeat.

System: ATP
Assay: switch fluorescence ratio, 500 uM ATP over buffer (Cy3 cluster intensity, sum of 5 cycles each) (fold (ratio)); higher = stronger signal-on switching upon ATP binding; sequences stand for … in TCGTCGGCAGCGTCAGATGTGTATAAGAGACAGTTTTTTTTTTTTTTTTTTTTTTTTT…TC
Settings: aptamer strand: ATP DNA aptamer (quencher-CACCTGGGGGAGTATTGCGGAGGAAGG + anchor), 100 nM annealed; ATP concentration: 500 uM; one replicate
Procedure, shortened: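 Cy3-labelled switching-strand clusters on a modified Illumina MiSeq flow-cell were annealed to 100 nM quencher-labelled ATP aptamer, imaged in selection buffer, then imaged after 15 min with 500 uM ATP at 22 °C. Five buffer/ATP cycles ran, with NaOH stripping and re-annealing between them. The fluorescence ratio is summed target-cycle over summed buffer-cycle Cy3 intensity per cluster, averaged per switch-domain sequence. Clusters outside 100-1000 RFU were excluded.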
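Note: ATP exposure 15 min at 22 °C before imaging.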

| Sequence | switch fluorescence ratio |
| --- | --- |
| TTAGCACTGA | 1.08 |
| ATGCGACACG | 1.01 |
| TCGACGTTT | 1.09 |
| TTGGCCCGTG | 1.05 |
| TTGTCGGCTA | 0.971 |
| ACGCCGAGAT | 1.11 |
| ACGTCTAAGA | 1.01 |
| AATCAGTGCC | 0.981 |
| CATATGAACT | 0.984 |
| ATTCACTATT | 1.01 |
| CCGGGCGCCT | 0.995 |
| AGGTCAGTC | 1.01 |
| TGGTTTCCGC | 1.07 |
| GGTCGTGTCT | 0.999 |
| GTCTGGCTCG | 0.943 |
| CGAGCAATTT | 3.06 |
| AGTGAGGAGG | 0.959 |
| GCACCCGTGC | 1.02 |
| ACATTGTCCT | 1.05 |
| GCGCAGCATG | 1.02 |
| CATCACTGCC | 1.07 |
| GGGCCCTATT | 1.03 |
| GTTCTAGCTG | 0.982 |
| CCGATATCAC | 2.45 |
| AATCAGTACG | 1.02 |

| Sequence | switch fluorescence ratio |
| --- | --- |
| GATGCCGGGT | 1.84 |
| TTACAGATAA | 1.01 |
| GAGCACAATG | 1.07 |
| GCACCCTGGT | 1.05 |
| GCCGATGTCT | 1 |
| GCTAACGTTC | 1.02 |
| CAGATAACTT | 0.992 |
| TATGGGCGAC | 0.935 |
| TGATGCAGGT | 1.04 |
| CATTTACGTT | 1.29 |
| TTAAGCCCAG | 1.26 |
| TTTGAATCTA | 0.993 |
| CATGCCTCTG | 0.99 |
| GTTAGGTATC | 0.975 |
| TAGCAGGCGG | 0.995 |
| AGCTAAGGAC | 1.04 |
| AATAACGTCG | 0.933 |
| GCAGCACCGC | 1.01 |
| CCTAGGCACC | 2.23 |
| TCAAACGCCG | 0.944 |
| CTTTAGGACG | 0.9 |
| AATAATTGTA | 1.07 |
| TTTGGGGCCG | 1.1 |
| GAATTGCGGT | 0.961 |
| TCGGGACTAA | 0.976 |

| Sequence | switch fluorescence ratio |
| --- | --- |
| ATCTATGTAC | 1.12 |
| TATTTGCCGA | 0.968 |
| GTGGCGGAGT | 0.974 |
| AACCTTCATT | 2.23 |
| GACATAGGAA | 2.23 |
| GCTACCCACG | 1.48 |
| TCGCGTATTG | 1.45 |
| TAGATTGTTA | 0.98 |
| TCCGGGAAGT | 1.06 |
| ACTGTTGTCA | 1.03 |
| GGGAATCGCA | 1.02 |
| CCAACGGGT | 1.09 |
| GTCTACCTTA | 1.05 |
| TGCGCTACTT | 1.16 |
| GGTCTCTACT | 1 |
| GTCGTAATAT | 1.49 |
| GCGCGACACC | 1.31 |
| TTTTAGCGGA | 1.01 |
| TTTATTAGC | 1.04 |
| GAGTCTCAGT | 1.01 |
| TCCGGGGATT | 1.04 |
| TTTCGCTTCG | 1.01 |
| TTCATTCTTT | 0.978 |
| CTCTATGTCA | 0.995 |
| TACAGCGAGT | 1.04 |

| Sequence | switch fluorescence ratio |
| --- | --- |
| CAGAGCCCTT | 0.988 |
| AGCTAAAGGG | 1.05 |
| GCCAGAGGT | 1.01 |
| ACAGCGACCT | 1.32 |
| TATCTTAAAC | 0.963 |
| GGTGGGTCCG | 0.981 |
| CTTCACTGCG | 1.09 |
| GGGAACTCAC | 1.16 |
| AGAGGGACGG | 0.982 |
| ATGTTACTGT | 1.02 |
| GTGGCCGCAG | 1.05 |
| AAACCTCGGA | 1.03 |
| GAGGGACGTT | 1.01 |
| TCGTAACGTA | 1.04 |
| AACCTTCCT | 2.02 |
| AGTAATTGTT | 0.953 |
| CGTTTCTGAG | 0.927 |
| TTCACACAGG | 2.72 |
| GGCGGGGCCT | 1 |
| GATTGAGACC | 1.01 |
| GGCTCTTTAT | 1 |
| ATGGGTTTCG | 0.958 |
| CGCTTGAAAG | 0.989 |
| ACGGCCCAAG | 1.06 |
| CTAATTTGCG | 0.996 |

| Sequence | switch fluorescence ratio |
| --- | --- |
| TTGGGTTGTA | 1 |
| GTGGGAGCCG | 1.04 |
| GCGAGAGCGT | 1.04 |
| GGGAGGAGAG | 1.03 |
| TTCTGCTGTG | 1.02 |
| ACCGAGCTAG | 1.13 |
| AGGGTCACTT | 0.994 |
| AAACATGTGG | 0.986 |
| ATTTCTTCTG | 0.962 |
| CTGGTTCCGC | 1.93 |
| TCAGTTGTAG | 1.01 |
| ATCTATAAGA | 0.959 |
| TTAGATTCAG | 0.956 |
| TACTCTTTT | 0.993 |
| AACGTTCCGC | 1.55 |
| CGGGTTGCAC | 0.984 |
| TGGCTTTGGG | 1.04 |
| ACTGGTTAGG | 1.02 |
| GATTCTCCAC | 0.998 |
| ATCCACACCT | 1.34 |
| TCGGGTTCAC | 1.02 |
| TGACACTACT | 1.35 |
| AGGCGCTCCA | 0.993 |
| CGTTTAATAG | 1.06 |
| ACTAAGCGAT | 1.64 |

| Sequence | switch fluorescence ratio |
| --- | --- |
| CTCGGGTGCC | 1.03 |
| ACAATAAGCG | 1.05 |
| TGATCGCATT | 1.79 |
| ACTATGCATC | 1.96 |
| ATGGAAGTTG | 1.01 |
| CCAATCCGAC | 1.6 |
| TTTAGCATAG | 1.88 |
| CATATTACAT | 0.999 |
| GCAGACCGAG | 1.03 |
| GGCGCAGCTA | 0.981 |
| CTTATGACTT | 0.984 |
| CGTTTTACGG | 0.974 |
| TTTGCGAGGA | 0.972 |
| AGTTGGTAAA | 0.973 |
| GCCGGTATTG | 1 |
| CCAGACACGT | 1.01 |
| GGTGACGTGA | 1.03 |
| CCCCTGTGT | 2.15 |
| GTAATGGTAA | 1 |
| AAACGTGT | 0.982 |
| TCCTTTAGAA | 1.01 |
| GCTGAGGCTA | 1.04 |
| CCAGACCAAG | 1.02 |
| CCCCTTCCCT | 1.09 |
| GAACGCCTCA | 1.09 |

| Sequence | switch fluorescence ratio |
| --- | --- |
| AATAAAAGCC | 1.05 |
| CCTTAACAGT | 1.03 |
| AGGTTAATC | 0.998 |
| ATCATATTG | 1.02 |
| GATGACGTGG | 1.03 |
| CTAGTGGGTA | 0.956 |
| ATTCGGCTCT | 1.01 |
| TTAAAGTTGG | 0.969 |
| CGGAACCAAT | 1.14 |
| TAGAACAAGG | 1.03 |
| TGTTGTACGG | 1.03 |
| ATCCCCGTCT | 0.985 |
| CGACTAACTT | 1.11 |
| CTTCGTCTTC | 0.993 |
| ACTAGTTGAC | 1.04 |
| AAATAAGATG | 0.942 |
| TCGGCGTCAA | 1.51 |
| GACGGTTG | 0.927 |
| GCGACACCTT | 1.19 |
| AAAACTAAT | 0.986 |
| GAGTAGG | 1.01 |
| GCCTGGTGGC | 0.995 |
| CCTATCTTTT | 1 |
| GGGAAAGACC | 1.42 |
| TAGAGGTATA | 0.976 |

| Sequence | switch fluorescence ratio |
| --- | --- |
| ATCTTAGGAG | 0.946 |
| ATCTAGGTTG | 0.998 |
| AAGCAGAAAA | 1.21 |
| ACCCACTTGC | 1.41 |
| TGCGTAGCAT | 0.993 |
| GCCAGCGGTC | 1.03 |
| GCTAGTCGCG | 0.959 |
| CTAAATAGTT | 0.97 |
| ATGTCGGAAG | 0.988 |
| CGGTCTAGGT | 0.983 |
| AAGCAGTAAC | 1.83 |
| TTAGCACTGT | 1.08 |
| CCTCGTTGCG | 0.884 |
| GACCGATTAG | 1.04 |
| GATGGGATCA | 0.948 |
| TGGTTTTCCG | 0.992 |
| TGACCAGTTG | 0.999 |
| TAATTTTGCA | 0.984 |
| GAAGGCATCT | 1.06 |
| CCGGACGAAG | 0.871 |
| CGGCGCTACG | 1.1 |
| CCGGAAACAT | 1.12 |
| TAGCGTTGTT | 0.963 |
| TTTTCGAAA | 1.02 |
| AAATGCTCCC | 1.19 |
